The other results are listed elsewhere or left out.

These results are taken from the supplement of paper PMC12645437, “Orthogonal IMiD-Degron Pairs Induce Selective Protein Degradation in Cells” (ACS Chemical Biology, 2025).
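Also: jurkat cells carrying a lentiviral library of mutant zinc finger degrons fused to EGFP plus mCherry, mCherry+ cells FACS sorted, degron abundance counted by next-generation sequencing.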

This test has as its target no compound (DMSO). In words: log2 fold change of degron read counts, EGFP-low vs EGFP+ sorted cells; higher = lower degron-EGFP level without compound (poor expression or instability). To be noted: compound: DMSO control; 18 h.
As for FWCNQCGAEFTQKGNLLRHIKL, the “log2 fold change of degron read counts” value was -0.115.
Regarding FTCPICGRNFTQKGNLLRHIKL, the “log2 fold change of degron read counts” value is -0.493.
In the case of FYCDVCGACFTQKGNLLRHIKL, the “log2 fold change of degron read counts” value is -0.779.
Under FECNQCGHPFTQKGNLLRHIKL stands -0.259; under FACDVCGAFFTQKGNLLRHIKL, -1.78.
Under FDCPVCGATFTQKGNLLRHIKL stands -1.14; under FDCDVCGAQFTQKGNLLRHIKL, -1.29; under FHCPICGAHFTQKGNLLRHIKL, 0.189.
For FSCEICGHVFTQKGNLLRHIKL, the “log2 fold change of degron read counts” value was -0.769.
Under FHCPQCGANFTQKGNLLRHIKL stands -0.583; under FSCPVCGAQFTQKGNLLRHIKL, -0.543; under FTCEICGRMFTQKGNLLRHIKL, -0.668.
Under LLCEICGFQCTQKGNLLRHIKL stands 0.00543; under FTCSVCGHCFTQKGNLLRHIKL, -0.767.
